Values joined by “and” are separate entries in the source; they are usually repeats but may differ in a detail not shown here. Equal entries are not always repeated. About 64,000 (15%) of roughly 420,000 compounds were called active. This list was built around the results that the source calls inconclusive (neither active nor inactive); the mix of calls is not that of the screen. The call rests on the fitted dose curve; in most records, active means well fitted inhibition curve with a large enough effect; inconclusive means small, poorly fitted or top-dose-only effect; inactive means flat fitted curve, though single readings scatter. A potency beside an inconclusive call is a rough fit, not a confirmed value.
experiment: qHTS for Inhibitors of human tyrosyl-DNA phosphodiesterase 1 (TDP1): qHTS in cells in absence of CPT; conditions: DT40 Tdp1-/- hTDP1 cells, no CPT, ATP luminescence, 48 h; activity change, negative = growth inhibition: at 46.2 µM (top of the series) unless noted; further: nearly all actives have a fitted effect of over 55% in size
Summary of the method: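 Cells were dispensed at 400 per well, compounds added by pin tool, plates incubated ≥48 hr at 37 °C, then CellTiter-Glo added for 30 min at room temperature before luminescence reading. Line: DT40 Tdp1-/- complemented with hTDP1; camptothecin omitted.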
On the % scale 0 is the no-effect control and ±100 the full control effect; potency means the concentration at half of the fitted maximal effect; tags describe the fitted curve by direction and shape.

Row | SMILES | Potency | activity change, negative = growth inhibition
1 | C[C@]12CCC3C(CC[C@H]4C[C@@H](O)[C@H](O)C[C@]34C)C1CC[C@@H]2O (stereo not given in full) | inactive | 
2 | CCCCCCCCCC[N+](C)(C)CCCCCCCCCC | active: 0.944 µM | 
3 | CCN(C(=O)COC(=O)C(O)(c1ccccc1)c1ccccc1)c1c(N)n(Cc2ccccc2)c(=O)[nH]c1=O | inactive | 
4 | CCOCCCNC(=O)c1c(NC(=O)c2nc(SC)ncc2Cl)sc2c1CCCC2 | active: 11.6 µM | 
5 | COc1ccccc1C1CC2CCC(C1OC(C)=O)N2Cc1ccccc1 (stereo not given) | inconclusive: 18.4 µM [inhibitor, single point] | 
6 | COc1cc(/C=C2\C(=O)NC(=O)N(CCc3ccc(F)cc3)C2=O)ccc1O | inactive | 
7 | N/C(=N\N=C/c1ccc(-c2ccc(O)c(C(=O)O)c2)o1)N[N+](=O)[O-] | inactive | 
8 | CN(C)CP(=O)(O)CN(C)C=O | inactive | 
9 | COC(=O)C1=C(c2cccc(OCc3ccccc3)c2)C[C@@H]2CC[C@H]1N2C(=O)NCc1cccc(F)c1 | inconclusive: 23.1 µM [inhibitor, single point] | 
10 | Cc1cccc(OP(N)(=O)Oc2cccc(C)c2)c1 | inconclusive: 8.2 µM [inhibitor, partial curve] | 
11 | C[C@]12CC[C@H]3[C@@H](CCC4=C(O)C(=O)CC[C@@H]43)[C@@H]1CC[C@@H]2OC(=O)CCC1CCCC1 | inactive | 
12 | Fc1ccc(C[n+]2c(-c3ccccc3)cc(-c3ccccc3)cc2-c2ccccc2)cc1 | active: 0.58 µM | 
13 | CCCOc1ccc(N2C(=O)CC(N3CC=C(c4ccccc4)CC3)C2=O)cc1 (stereo not given) | inconclusive: 6.51 µM [inhibitor, partial curve] | 
14 | O=c1[nH]c(O)c(C=Nc2cc(F)cc(F)c2)c(=O)[nH]1 | inactive | 
15 | Cn1cc(C(=O)OCC(=O)NC2(C#N)CCCCC2)c2ccccc21 | inactive | 
16 | CCCCP(=O)(O)c1ccccc1 | inactive | 
17 | COc1ccc(CCC(C)NCCc2ccccc2)cc1 (stereo not given) | inconclusive: 32.6 µM [inhibitor, partial curve] | 
18 | Cc1c(C(c2ccc(F)cc2)c2c(O)c3ccccc3oc2=O)c(=O)n(-c2ccccc2)n1C (stereo not given) | inconclusive: 29.1 µM [inhibitor, single point] | 
19 | COc1ccccc1N1CCN(Cc2ccccc2Cl)CC1 | inactive | 
20 | CCOc1ccc(CNC(=O)c2cccc(Nc3nc4ccccc4n4nnnc34)c2)cc1OC | inconclusive: 2.59 µM [inhibitor, full curve] | 
21 | CN1CCCC2(CCN(C(=O)c3csnn3)CC2)C1 | inactive | 
22 | COC1=C[C@]23CCCN2CCc2cc4c(cc2[C@@H]3[C@@H]1O)OCO4 |  | inactive: -13.2% [at 9.04 µM]
23 | CSCCC(c1nnnn1-c1ccc2c(c1)OCCO2)N1CCC2(CC1)C(=O)NCN2c1ccccc1 (stereo not given) | inconclusive: 25.9 µM [inhibitor, single point] | 
24 | Cc1cccc(NC(=O)Cn2cc(C(=O)c3ccccc3)c3ccccc32)c1C | inconclusive: 13 µM [inhibitor, partial curve] | 

Row | SMILES | Potency | activity change, negative = growth inhibition
25 | Cc1cccc(-n2c(O)c(C=NCCN3CCCCC3)c(=O)[nH]c2=O)c1 | inactive | 
26 | O=[N+]([O-])c1ccc(O)c([N+](=O)[O-])c1 | inconclusive: 29.1 µM [inhibitor, single point] | 
27 | Cc1cccc(-n2c(C)nc3cc(C(=O)N4CCC5(CC4)OCCO5)ccc32)c1 | inconclusive: 29.1 µM [inhibitor, single point] | 
28 | Oc1ccc(C2NCc3ccccc3-n3cccc32)cc1Cl (stereo not given) | inconclusive: 13 µM [inhibitor, partial curve, poor fit] | 
29 | N#Cc1ccc(C(=O)N2Cc3cnnn3-c3ccccc3C2C#N)cc1 (stereo not given) | inactive | 
30 | O=[N+]([O-])c1[nH]cnc1Br | inactive | 
31 | CCOC(=O)c1c(/N=C/c2c(O)n(-c3cccc(C)c3)c(=O)[nH]c2=O)sc2c1CCCC2 | inconclusive: 29.1 µM [inhibitor, single point] | 
32 | COc1ccccc1N1CCN(S(=O)(=O)c2ccc3c(c2)oc(=O)n3C)CC1 | inconclusive: 14.6 µM [inhibitor, partial curve, poor fit] and inconclusive: 18.4 µM [inhibitor, single point] | 
33 | CN1CCC(N(C)c2ccc(C(N)=O)cc2[N+](=O)[O-])CC1 | inactive | 
34 | CCOc1cccc(CNCCc2c(C)[nH]c3ccc(OC(F)(F)F)cc23)c1O | active: 2.06 µM | 
35 | Cc1ccc(C2NC(=S)N3C(c4ccc(C)cc4)NC(=S)N23)cc1 (stereo not given) | inconclusive: 29.1 µM [inhibitor, single point] | 
36 | O=C1CC(N2CCC(n3c(=O)[nH]c4ccccc43)CC2)C(=O)N1Cc1ccccc1 (stereo not given) | inactive | 
37 | N#CC12c3ccccc3C(=O)N1Cc1cnnn1-c1ccccc12 (stereo not given) | inactive | 
38 | O=c1cccc2n1CC1CC2CN(c2nc(N3CCCCC3)nc(N3CCCCC3)n2)C1 (stereo not given) | inconclusive: 16.4 µM [inhibitor, single point] | 
39 | CCC(C(=O)Nc1ccc(Cl)cc1)N1CCCC1=O (stereo not given) | inconclusive: 0.0164 µM [inhibitor, full curve, poor fit] | 
40 | O=P(C(c1ccc2c(c1)OCO2)N1CCOCC1)(N1CCOCC1)N1CCOCC1 (stereo not given) | inactive | 
41 | C=CC1CN2CCC1CC2C(O)c1ccnc2ccccc12 (stereo not given) | inconclusive: 18.4 µM [inhibitor, single point] and inconclusive: 20.6 µM [inhibitor, single point] and inconclusive: 29.1 µM [inhibitor, single point] | 
42 | Cc1cc(C)cc(-n2c(SCC(=O)NCc3ccc(F)cc3)nc3c([nH]c4ccccc43)c2=O)c1 | active: 16.4 µM | 
43 | CN1CCN(c2nc3ccccc3c(=O)n2-c2ccccc2)CC1 | inactive | 
44 | Cc1ccc(NC(=O)COc2ccc(-c3nn(C)c(=O)c4ccccc34)cc2)cc1 | inconclusive: 25.9 µM [inhibitor, single point] | 
45 | CN1[C@@H]2CC[C@H]1CC(OC(c1ccc(F)cc1)c1ccc(F)cc1)C2 (stereo not given in full) | active: 9.44 µM | 
46 | CC(=O)Nc1ccc(OC(=O)N(C)C)cc1 | inactive | 
47 | O=C(O)C(Br)CBr (stereo not given) | inconclusive: 5.8 µM [inhibitor, partial curve] | 
48 | CCC(C)C(=O)OC1C[C@@]2(C)C(c3ccoc3)OC(=O)CC23OC2(C)OC34C(OC(=O)C(C)C)[C@]3(O)C(OC(=O)C5(C)OC5C)[C@]5(C)CC3(O)[C@](C)(C5CC(=O)OC)C14O2 (stereo not given in full) | inconclusive: 16.4 µM [inhibitor, single point] | 

Row | SMILES | Potency | activity change, negative = growth inhibition
49 | C[C@]12CCC3=C4CCC(=O)C=C4CC[C@H]3C1CC[C@@H]2O (stereo not given in full) | inconclusive: 11.6 µM [inhibitor, partial curve] | 
50 | CCCNC(=O)N1[C@H]2CC[C@@H]1C(C(=O)OC)=C(c1ccc(F)cc1F)C2 | inconclusive: 29.1 µM [inhibitor, single point] | 
51 | COc1ccc(N2C(=O)/C(=C/c3ccc(N(C)C)o3)C(=O)NC2=S)cc1 | inactive | 
52 | CCCCCn1c(=O)c(C(=O)Nc2ccccc2N)c(O)c2ccccc21 | active: 20.6 µM | 
53 | CCN(CC)CC(O)c1ccc(C2CCCC2)cc1 (stereo not given) | inconclusive: 29.1 µM [inhibitor, single point] | 
54 | COc1ccccc1CC(=O)Nc1ccc2c(c1)OC1(CCCC1)O2 | inconclusive: 23.1 µM [inhibitor, single point] | 
55 | CC1CN=C(NCc2ccc(F)cc2)S1 (stereo not given) | inactive | 
56 | COC(=O)C1=C(c2ccc(F)cc2OCc2ccccc2)C[C@@H]2CC[C@H]1N2C(=O)NCc1ccc2c(c1)OCO2 | inconclusive: 29.1 µM [inhibitor, single point] | 
57 | COc1cc(C(=O)Nc2ccc(Br)cc2C(=O)c2ccccc2Cl)cc(OC)c1OC | active: 23.1 µM | 
58 | CC1=CC(C)CC(C)OC(=O)CC(c2ccc(O)cc2)NC(=O)C(Cc2c(Br)[nH]c3ccccc23)N(C)C(=O)C(C)NC(=O)C(C)C1 (stereo not given) | active: 0.0146 µM | 
59 | COc1ccc(CCn2c(O)c(C=Nc3ccc(F)cc3)c(=O)[nH]c2=O)cc1OC | inconclusive: 13 µM [inhibitor, partial curve, poor fit] | 
60 | O=S1(=O)N(CCN2CC=C(c3c[nH]c4cc(F)ccc34)CC2)c2cccc3c2N1CCC3 | active: 16.4 µM | 
61 | CC(=O)OC1C[C@]2(C)C(C(C)=O)CCC2C2CCC3=CC(=O)CC[C@@]3(C)C12 (stereo not given in full) | inconclusive: 23.1 µM [inhibitor, single point] | 
62 | CCC(C)N=Cc1c(O)n(-c2ccccc2)c(=O)[nH]c1=O (stereo not given) | inactive | 
63 | COc1ccc(/C=C/c2nc(-c3ccccc3O)n(-c3ccccc3)n2)cc1OC | active: 10.3 µM | 
64 | CN1CCCC2c3ccccc3CCC21 (stereo not given) | inconclusive: 16.4 µM [inhibitor, partial curve] | 
65 | O=C(C[N+]12CCC(CC1)C(OC(=O)c1ccccc1)C2)c1ccc([N+](=O)[O-])cc1 (stereo not given) | inconclusive: 29.1 µM [inhibitor, single point] | 
66 | O=C(NCc1ccccc1)c1cccc(Nc2nc3ccccc3n3nnnc23)c1 | active: 14.6 µM | 
67 | O=C(Nc1nnc(-c2ccco2)o1)c1cccc2ccccc12 | inconclusive: 23.1 µM [inhibitor, single point] | 
68 | COc1ccc(Nc2ncc(C(=O)N3CCC4(CC3)OCCO4)c3ccccc23)cc1 | inconclusive: 29.1 µM [inhibitor, single point] | 
69 | COCOC1CCC2C3CCC4=CC(=O)CCC4=C3C=CC12C (stereo not given) | inconclusive: 29.1 µM [inhibitor, single point] | 
70 | O=C1NC(c2cc3ccccc3nc2Cl)Nc2ccccc21 (stereo not given) | inconclusive: 25.9 µM [inhibitor, single point] | 
